# In paper PMC4063901:
# T1: human P2Y1 receptor (hP2Y1R) protein, N-terminally tagged with mTFP1 (human), P47900
# T1 chain: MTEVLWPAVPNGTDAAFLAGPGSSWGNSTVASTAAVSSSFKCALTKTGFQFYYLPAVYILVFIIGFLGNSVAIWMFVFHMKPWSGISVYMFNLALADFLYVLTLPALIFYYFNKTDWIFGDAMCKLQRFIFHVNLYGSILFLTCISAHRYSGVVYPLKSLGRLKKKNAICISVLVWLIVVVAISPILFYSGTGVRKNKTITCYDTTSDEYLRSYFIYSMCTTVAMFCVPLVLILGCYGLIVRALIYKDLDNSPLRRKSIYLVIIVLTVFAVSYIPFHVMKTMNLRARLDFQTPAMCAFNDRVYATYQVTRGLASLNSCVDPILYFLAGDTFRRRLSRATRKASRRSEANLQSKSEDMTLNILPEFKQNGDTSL
# Molecular target: T1, human P2Y1 receptor (hP2Y1R) protein, …
# Experiment: FRET or BRET; homo-FRET read as loss of steady-state fluorescence anisotropy (ssFAIM) in TIRF illumination, with EPI on the same field for comparison; living HEK293T cells expressing mTFP1-P2Y1R; apyrase 2 U/ml for 4 h at 37°C; HBSS with 1 mM MgCl2 and 1 mM CaCl2; without agonist, with agonist 2-MeS-ATP (10 µM, 30 min, 37°C), or with antagonist MRS 2500 (1 µM)
# Details: remark: other sources report otherwise
binder,measurement,value
"human P2Y1 receptor (hP2Y1R) protein, N-terminally tagged with mTFP1, P47900 1-373 (receptor) MTEVLWPAVPNGTDAAFLAGPGSSWGNSTVASTAAVSSSFKCALTKTGFQFYYLPAVYILVFIIGFLGNSVAIWMFVFHMKPWSGISVYMFNLALADFLYVLTLPALIFYYFNKTDWIFGDAMCKLQRFIFHVNLYGSILFLTCISAHRYSGVVYPLKSLGRLKKKNAICISVLVWLIVVVAISPILFYSGTGVRKNKTITCYDTTSDEYLRSYFIYSMCTTVAMFCVPLVLILGCYGLIVRALIYKDLDNSPLRRKSIYLVIIVLTVFAVSYIPFHVMKTMNLRARLDFQTPAMCAFNDRVYATYQVTRGLASLNSCVDPILYFLAGDTFRRRLSRATRKASRRSEANLQSKSEDMTLNILPEFKQNGDTSL","fluorescence anisotropy r (TIRF mode, no agonist)",0.224
same,fraction of constitutive dimers in the cell membrane (before agonist treatment),45%
